Hit rate of the full screen: of about 420,000 compounds, about 64,000 (15%) were called active. The inconclusive results got no clear call from the source; some entries with a clear call stand among them for comparison. The call rests on the fitted dose curve; in most records, active means well fitted inhibition curve with a large enough effect; inconclusive means small, poorly fitted or top-dose-only effect; inactive means flat fitted curve, though single readings scatter. No potency is given beside an inconclusive call; the fits are too rough.
experiment: qHTS for Inhibitors of human tyrosyl-DNA phosphodiesterase 1 (TDP1): qHTS in cells in absence of CPT; conditions: DT40 Tdp1-/- hTDP1 cells, no CPT, ATP luminescence, 48 h; activity change, negative = growth inhibition: at 46.2 µM (top of the series) unless noted; further: nearly all actives have a fitted effect of over 55% in size
Procedure, shortened: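 Chicken DT40 Tdp1-/- cells complemented with human TDP1, screened without camptothecin (DMSO vehicle only), 400 cells/well. Compounds pin-transferred, cells incubated at 37 °C for at least 48 hr. Growth read as ATP-dependent luminescence (CellTiter-Glo, 30 min at RT).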
On the % scale 0 is the no-effect control and ±100 the full control effect; potency means the concentration at half of the fitted maximal effect; tags describe the fitted curve by direction and shape.

Structure (SMILES)	Potency	activity change, negative = growth inhibition
CCOC(=O)C1=C(Nc2ccc(C)cc2)CC(C)(O)C(C(=O)OCC)C1c1ccccc1 (stereo not given)	inconclusive [inhibitor, single point]	–
CC1Cc2cc(S(=O)(=O)CCC(=O)Nc3ccccc3F)ccc2N1C(=O)C1CC1 (stereo not given)	inconclusive [inhibitor, single point]	–
Cc1ccc(SCc2cc(=O)[nH]c(Nc3nc(C)c4ccc(C)cc4n3)n2)cc1	inconclusive [inhibitor, single point]	–
Cc1cc2nc(C)c(=O)n(C)c2cc1C	inconclusive [inhibitor, single point]	–
CCOc1cc(NC(=S)NC)c(OCC)cc1NC(=O)c1ccco1	inactive	–
O=C(COc1ccccc1)NCC(=O)N/N=C/c1ccco1	–	inconclusive: -26.1% [inhibitor]
CC(Cl)C(=O)NNC(=O)CNS(=O)(=O)c1ccccc1 (stereo not given)	inactive	–
CCOC1=C2CN(S(=O)(=O)c3ccc(C)cc3)C(c3cccc(Cl)c3)CC2NC(c2ccccc2)C1 (stereo not given)	inconclusive [inhibitor, single point]	–
Cc1c(C(=O)NC2CCN(Cc3ccccc3)C2)oc2ccc(Br)cc12 (stereo not given)	inconclusive [inhibitor, single point]	–
CCn1c(N2CCN(CC(=O)c3c(C)n(C)c4ccccc34)CC2)nc2c1c(=O)[nH]c(=O)n2C	inconclusive [inhibitor, single point]	–
CCOC(=O)CCSc1nc(N2CCOCC2)c2c(c1C#N)CC(C)(C)OC2	inactive	–
Cc1cc(C)n(-c2ccc(C(=O)C(C#N)c3nc4ccccc4n3C)cc2)n1 (stereo not given)	inconclusive [inhibitor, single point]	–
COc1ccc(OCc2nn3c(-c4ccco4)nnc3s2)cc1	inconclusive [inhibitor, partial curve, poor fit]	–
COc1cc(S(=O)(=O)N(Cc2ccccn2)Cc2ccccc2Cl)ccc1-n1cnnn1	inconclusive [inhibitor, single point]	–
Fc1ccc(NC(=S)N/N=C/c2cccc(Br)c2)c(F)c1	active: 4.11 µM	–
CC(=O)c1c(C)[nH]c(C(=O)OCc2nnc(-c3ccccc3)o2)c1C	active: 13 µM	–
O=c1oc2cc(Oc3c([N+](=O)[O-])cc(C(F)(F)F)cc3[N+](=O)[O-])ccc2c2c1CCCC2	active: 13 µM	–
CCC1CCCCN1CCCNC(=O)CCNC(=O)Cn1cnc2ccccc2c1=O (stereo not given)	inactive	–
COC(=O)c1ccccc1NC(=O)c1cccc(NC(=O)c2ccc(Br)o2)c1C	active: 1.84 µM	–
CCOC(=O)c1cc(-c2ccc(C)cc2)n(CCCC(=O)Nc2cc(C)ccc2C)c1	inconclusive [inhibitor, single point]	–
O=S1(=O)CCO[C@H]2Cc3ccccc3[C@H]2N1Cc1cccc(C(F)(F)F)c1	inconclusive [inhibitor, single point]	–
CC(CN1CCN(C/C=C/c2ccccc2)CC1)c1ccccc1 (stereo not given)	inactive	–
COc1ccc(N=Cc2c(O)[nH]c3ccccc23)cc1OC	inconclusive [inhibitor, single point]	–
COCCCn1c(=N)c(C(=O)NC2CCCC2)cc2c(=O)n3cccc(C)c3nc21	active: 23.1 µM	–

Structure (SMILES)	Potency	activity change, negative = growth inhibition
Cc1ccc2nc(-c3ccc(F)cc3)c(Cc3ccccn3)n2c1	inconclusive [inhibitor, single point]	–
Cc1ccn(CCC(=O)NC2CC(C)(C)Cc3c2cnn3-c2ccccc2C)n1 (stereo not given)	inconclusive [inhibitor, partial curve]	–
COc1ccc(Cn2ccc3nc(C)c(C(=O)Nc4cc(OC)c(OC)c(OC)c4)cc3c2=O)cc1	inconclusive [inhibitor, single point]	–
CCCCn1c(CN(Cc2ccccc2)Cc2ccccc2)nc2c1c(=O)n(C)c(=O)n2C	active: 18.4 µM	–
COc1ccc2c(c1OC)C(=O)N(c1cccc(C)c1)C2=O	inactive	–
CCOc1c(OC(C)=O)ccc(/C=C/c2ccc3cccc(OC)c3n2)c1[N+](=O)[O-]	active: 16.4 µM	–
CCOc1cc(/C=C2\SC(=Nc3ccccc3)N(c3ccccc3)C2=O)ccc1OCC(=O)O	inconclusive [inhibitor, single point]	–
CC1(C)Cc2c(C#N)c(NCCN3CCOCC3)nc(-c3ccco3)c2CO1	inconclusive [inhibitor, single point]	–
CCCCC(=O)N1CCc2cc(OC)c(OC)cc2C1COc1ccc(C(=O)OCC)cc1 (stereo not given)	active: 18.4 µM	–
Cc1ccc(C(=O)CSC2=C(C#N)C(c3ccco3)CC(=O)N2)c(C)c1 (stereo not given)	inconclusive [inhibitor, single point]	–
COc1ccc(NS(=O)(=O)c2ccc(NC(=S)NC(=O)/C=C/c3ccc(C)cc3)cc2)nn1	inconclusive [inhibitor, partial curve]	–
CCc1ccc(C2CC3C(CN2S(=O)(=O)c2ccc(C)cc2)[C@@H](O)C[C@@H](c2ccc(CC)cc2)N3S(=O)(=O)c2ccc(C)cc2)cc1 (stereo not given in full)	inconclusive [inhibitor, partial curve]	–
CCCCOc1ccccc1C1NC(=O)NC(C)=C1C(=O)OCc1ccco1 (stereo not given)	inconclusive [inhibitor, single point]	–
CCN(CC)C(=S)SCC(=O)NC12CC3CC(CC(C3)C1)C2	inconclusive [inhibitor, single point]	–
Cc1nc2ccccc2nc1/C=C/c1ccc(N(C)C)cc1	active: 0.501 µM	–
CCn1cc(C(=O)OCC(=O)Nc2cc(S(=O)(=O)N(C)C)ccc2C)c(=O)c2ccc(C)nc21	inconclusive [inhibitor, single point]	–
CC(C)(C)C1CCc2c(sc3nc(SCC(N)=O)nc(N)c23)C1 (stereo not given)	inconclusive [inhibitor, single point]	–
CCOc1ccc(C2NC(=O)c3n[nH]c(C)c32)cc1 (stereo not given)	inactive	–
O=C(Nc1ccc(F)cc1)Nc1ccc2c(c1)OCO2	inconclusive [inhibitor, partial curve]	–
CCCN1C(=O)c2cc(C(=O)NC3CCCCCC3)ccc2C1O (stereo not given)	inconclusive [inhibitor, single point]	–
Cc1cc(C)cc(-n2ccn(CC(=O)c3ccc(F)cc3)c(=O)c2=O)c1	inactive	–
CSCC(C)N1CCC(n2nccc2NC(=O)c2ccccc2C)CC1 (stereo not given)	inactive	–
O=C(NC1CCCCC1)c1ccc(CSc2nc3cccnc3n2Cc2cccc(F)c2)cc1	active: 5.17 µM	–
COc1cccc(-c2cc3nc4c(c(N5CCC6(CC5)OCCO6)n3n2)CCCC4)c1	active: 20.6 µM	–

Structure (SMILES)	Potency	activity change, negative = growth inhibition
CCC1CCCCN1C(=S)Nc1ccc(S(=O)(=O)Nc2ncccn2)cc1 (stereo not given)	inconclusive [inhibitor, single point]	–
CCOc1ccc(NC(=O)c2ccc3c(c2)OCCO3)cc1S(=O)(=O)N(CC)CC	inconclusive [inhibitor, single point]	–
CCOC(=O)[C@]12CCCC=C1N(Cc1ccco1)C(=O)[C@H](CC(=O)NCc1ccc(OC)c(OC)c1)C2	–	inconclusive: -30.9% [inhibitor]
Cc1ccc(S(=O)(=O)NC(C)C(=O)OCC(=O)N(C)c2ccccc2)cc1 (stereo not given)	inactive	–
Nc1[nH]c(C(=O)c2ccccc2)c(-c2ccncc2)c1C(=O)NCCc1c[nH]c2ccccc12	inconclusive [inhibitor, single point]	–
O=C(Cn1nc(-c2ccccc2)oc1=O)OCC(=O)c1ccccc1	inconclusive [inhibitor, single point]	–
O=C(COc1cccc2ccccc12)N/N=C/c1ccco1	inactive	–
O=C(Nc1csnn1)OCc1ccccc1	inactive	–
Cc1cc(Br)cn2c(CC(C)(C)C)c(C3CCCCC3)nc12	inconclusive [inhibitor, single point]	–
Fc1cccc(NC(=S)Nc2cccnc2)c1	–	inconclusive: -11.3% [inhibitor]
CCOC(=O)C1=C[C@@H](CC)N(S(=O)(=O)c2ccc(C)cc2)[C@H]1c1ccccc1	active: 14.6 µM	–
O=c1c2ccccc2nnn1CSc1nnnn1-c1ccccc1	inconclusive [inhibitor, single point]	–
CCOc1ccc(NC(=O)CCc2c(C)nc3cc(-c4ccccc4OC)nn3c2C)cc1	inconclusive [inhibitor, single point]	–
O=C(NCCc1ccco1)C(=O)NCCC1CCCCN1S(=O)(=O)c1ccccc1 (stereo not given)	inconclusive [inhibitor, single point]	–
N#CC1=C(N)Oc2c(ccc3ccccc23)C1c1ccsc1 (stereo not given)	active: 0.58 µM	–
c1cnc2ccc(-c3ccc4ncccc4c3)cc2c1	active: 4.11 µM	–
COc1ccc(Cl)cc1NC(=O)CC1S/C(=N/N=C2CCCCCC2)NC1=O (stereo not given)	inconclusive [inhibitor, single point]	–
Cc1ccc(CC(=O)N(C)CC(=O)N(CC(C)C)c2c(N)n(CC(C)C)c(=O)[nH]c2=O)cc1C	inactive	–
O=C(c1ccc(CS(=O)(=O)c2ccc(Br)cc2)o1)N1CCN(c2ccc(F)cc2)CC1	active: 23.1 µM	–
Cc1ccc(NC(=O)c2sc3ncnc(N(C)C4CCCCC4)c3c2C)c(C)c1	inconclusive [inhibitor, single point]	–
CC(C)(O)C(=O)NN(Cc1ccccc1)c1ccccc1	inactive	–
O=C(CNc1cccc([N+](=O)[O-])c1)N1CCN(S(=O)(=O)c2ccc(Cl)cc2)CC1	inconclusive [inhibitor, single point]	–
